{"source": "the antibiotic and cytotoxicity screens of Wong et al. (2023)", "key": {"HSkMC": {"system": "HSkMC", "assay": "cytotoxicity call (relative viability < 0.9)", "details": "10 µM"}, "HepG2": {"system": "HepG2", "assay": "cytotoxicity call (relative viability < 0.9)", "details": "10 µM"}, "S. aureus RN4220": {"system": "S. aureus RN4220", "assay": "growth inhibition call (relative growth <= 0.2)", "details": "50 µM"}}, "note": "The list shows a part of the results."}
{"molecule": "C[C@H](CO)N1C[C@H](C)[C@@H](CN(C)C(=O)Nc2cccc3ccccc23)Oc2c(NC(=O)c3ccc(-c4nccs4)cc3)cccc2C1=O", "values": [{"measurement": "cytotoxicity call", "setting": "HSkMC", "result": "inactive"}, {"measurement": "cytotoxicity call", "setting": "HepG2", "result": "inactive"}, {"measurement": "growth inhibition call", "setting": "S. aureus RN4220", "result": "inactive"}]}
{"molecule": "Cc1ccc(S(=O)(=O)N(C)C[C@@H]2Oc3ccc(N(C)C)cc3CC(=O)N([C@H](C)CO)C[C@H]2C)cc1", "values": [{"measurement": "cytotoxicity call", "setting": "HSkMC", "result": "inactive"}, {"measurement": "cytotoxicity call", "setting": "HepG2", "result": "inactive"}, {"measurement": "growth inhibition call", "setting": "S. aureus RN4220", "result": "inactive"}]}
{"molecule": "COc1ccc(NC(=O)N(C)C[C@H]2OCCCC[C@H](C)Oc3ccc(NC(=O)CCC(F)(F)F)cc3C(=O)N([C@@H](C)CO)C[C@H]2C)cc1", "values": [{"measurement": "cytotoxicity call", "setting": "HSkMC", "result": "inactive"}, {"measurement": "cytotoxicity call", "setting": "HepG2", "result": "inactive"}, {"measurement": "growth inhibition call", "setting": "S. aureus RN4220", "result": "inactive"}]}
{"molecule": "C=CC1CN2CCC1CC2C(O)c1ccnc2ccc(OC)cc12.Cl", "note": "(stereo not given)", "values": [{"measurement": "cytotoxicity call", "setting": "HSkMC", "result": "inactive"}, {"measurement": "cytotoxicity call", "setting": "HepG2", "result": "active"}, {"measurement": "growth inhibition call", "setting": "S. aureus RN4220", "result": "inactive"}]}
{"molecule": "C[C@H](O)C#Cc1ccc2c(c1)O[C@@H](CN(C)C(=O)c1ccccc1)[C@H](C)CN([C@H](C)CO)S2(=O)=O", "values": [{"measurement": "cytotoxicity call", "setting": "HSkMC", "result": "inactive"}, {"measurement": "cytotoxicity call", "setting": "HepG2", "result": "inactive"}, {"measurement": "growth inhibition call", "setting": "S. aureus RN4220", "result": "inactive"}]}
{"molecule": "CN1CCN([C@@H]2CCN[C@H]2Cc2cnn(C)c2)CC1", "values": [{"measurement": "cytotoxicity call", "setting": "HSkMC", "result": "inactive"}, {"measurement": "cytotoxicity call", "setting": "HepG2", "result": "inactive"}, {"measurement": "growth inhibition call", "setting": "S. aureus RN4220", "result": "inactive"}]}
{"molecule": "COc1cccc(S(=O)(=O)Nc2ccc3c(c2)[C@H]2C[C@H](CC(=O)NCc4cccc(F)c4)O[C@@H](CO)[C@H]2O3)c1", "values": [{"measurement": "cytotoxicity call", "setting": "HSkMC", "result": "inactive"}, {"measurement": "cytotoxicity call", "setting": "HepG2", "result": "inactive"}, {"measurement": "growth inhibition call", "setting": "S. aureus RN4220", "result": "inactive"}]}
{"molecule": "CCOC(=O)/C(C)=N/NC(C)=O", "values": [{"measurement": "cytotoxicity call", "setting": "HSkMC", "result": "inactive"}, {"measurement": "cytotoxicity call", "setting": "HepG2", "result": "inactive"}, {"measurement": "growth inhibition call", "setting": "S. aureus RN4220", "result": "inactive"}]}
{"molecule": "Cc1noc(C)c1NC(=O)Nc1ccc2c(c1)CC(=O)N([C@@H](C)CO)C[C@H](C)[C@@H](CN(C)Cc1ccc(C(F)(F)F)cc1)O2", "values": [{"measurement": "cytotoxicity call", "setting": "HSkMC", "result": "inactive"}, {"measurement": "cytotoxicity call", "setting": "HepG2", "result": "inactive"}, {"measurement": "growth inhibition call", "setting": "S. aureus RN4220", "result": "inactive"}]}
{"molecule": "C[C@@H]1CN([C@H](C)CO)C(=O)c2cccc(NC(=O)Nc3ccc4c(c3)OCO4)c2O[C@@H]1CN(C)S(C)(=O)=O", "values": [{"measurement": "cytotoxicity call", "setting": "HSkMC (human skeletal muscle cells)", "result": "inactive"}, {"measurement": "cytotoxicity call", "setting": "HepG2", "result": "inactive"}, {"measurement": "growth inhibition call", "setting": "S. aureus RN4220", "result": "inactive"}]}
